According to ChEMBL document CHEMBL4888484, “Replenishing the malaria drug discovery pipeline: Screening and hit evaluation of the MMV Hit Generation Library 1 (HGL1) against asexual blood stage Plasmodium falciparum ,using a nano luciferase reporter read-out” (2022):
Screen size: about 150,000 compounds; about 540 (0.36%) showed an effect of 50% or more. The list shows a part of the results.

test system: Plasmodium falciparum; assay: Primary screen in NF54 nanoGlo assay, in single point, at 2uM, 72h; a lower Z score goes with more inhibition; type: functional, Erythrocyte; details: timepoint 72 hour

| SMILES | % Inhibition [%] | Z score |
| --- | --- | --- |
| O=S1(=O)CCC[C@H](NS(=O)(=O)c2ccco2)C1 | -5 | 0.94 |
| O=C(O)[C@@]1(CC2CC2)CCCN(Cc2ccc3c(c2)OCCO3)C1 | 8 | -1.3 |
| Cc1nn(-c2nc3ccccc3[nH]2)c2c1[C@@H](c1cccnc1)CC(=O)N2 | 68 | -14.32 |
| C[C@H](NC(=O)c1ccc(C#N)cn1)c1cccc(N2CCCC2)c1 | 1 | -0.15 |
| Cc1noc(C)c1CCC(=O)Nc1n[nH]c(CCC2CCCC2)n1 | 7 | -0.81 |
| CCN(CCn1cccn1)Cc1c(C(=O)N(C)C)nc2ccc(Cl)cn12 | -5 | 0.64 |
| CN(C)c1ncc2c(=O)n(C)ccc2n1 | -9 | 1.34 |
| COc1ccc(N2CCN(C(=O)[C@H]3CCC[C@H]3NC(=O)c3ccncc3)CC2)cc1 | -13 | 1.67 |
| COc1ccccc1-c1nc2c([nH]1)c(C)nn2[C@@H](C)C1CC1 | -3 | 0.39 |
| COc1ccc(C(=O)N2C[C@@H](F)[C@@H](OCc3nc4ccccc4[nH]3)C2)cc1 | 14 | -1.65 |
| CCn1nc(CC2CCN(C)CC2)nc1[C@H]1CC(=O)N(C2CCCC2)C1 | 1 | -0.15 |
| COCCC(=O)N1CCC[C@H](S(=O)(=O)N2CCc3ccccc32)C1 | -15 | 1.92 |
| Cc1noc([C@H]2CCCN(C(=O)c3nc4cccnc4s3)C2)n1 | -2 | 0.32 |
| CCc1occc1C(=O)NCC1CCC(C(=O)N(C)C)O1 (stereo unspecified) | 2 | -0.31 |
| O=C1N[C@H]2C[C@@H](C(=O)NC[C@H]3O[C@H](CCOc4cc(C5CCCC5)ccc41)CC[C@@H]3O)N(CC1CCCCC1)C2 | 32 | -3.66 |
| CCn1cc(S(=O)(=O)N2CCOc3c(F)cc(F)cc32)cn1 | -2 | 0.31 |
| CCc1noc(C)c1C(=O)N[C@H]1CCS(=O)(=O)C1 | -5 | 0.49 |
| CCC(=O)N1CCc2ccc(OC(CC)C(=O)NCc3ccccc3)cc2C1c1cccc(F)c1 (stereo unspecified) | -7 | 0.62 |
| CCCCC[C@H](C)NC(=O)c1cncn1-c1cccc(-c2cccnc2)c1 | -17 | 2.09 |
| CC(=O)N1CCCN(C(=O)Cn2ccc3ccccc32)CC1 | -12 | 1.03 |
| CN(C(=O)CN1CCCC1c1ccccc1)C1CCS(=O)(=O)C1 (stereo unspecified) | -7 | 1.31 |
| O=C(c1cccc(S(=O)(=O)N2CCCCC2)c1)N1CCc2[nH]c3ccc(F)cc3c2C1 | -4 | 0.75 |
| O=C(NCC(F)(F)F)C(=O)N1CCC(Oc2cccc(Br)c2)CC1 | -8 | 0.72 |
| CCn1ccc(CNCCNc2ccncc2C)n1 | -3 | 0.68 |
| N#CC1(C(=O)N2CCCN(C(=O)C3(C#N)CCCC3)CC2)CCCC1 | -5 | 1.12 |
| O=S1(=O)CCN(c2cc(-c3ccccc3F)nc3ccnn23)CC1 | -8 | 1.18 |
| O=C1C[C@H](Nc2ccc3c(c2)OCO3)C(=O)N1 | -1 | 0.25 |

| SMILES | % Inhibition [%] | Z score |
| --- | --- | --- |
| COCc1ccccc1COC(=O)c1cnn2c1CCCC2 | -30 | 3.1 |
| CCC=C(C)C(=O)Nc1ccc(C(C)(C)C(=O)O)cc1 | 7 | -0.89 |
| COc1ccc(CCNC(=O)[C@H](C)n2nc3c(cc2=O)CCC3)cc1OC | 10 | -1.32 |
| CN1CCn2cc(S(=O)(=O)Nc3ccc(F)cc3)cc2C1=O | -3 | 0.55 |
| Cc1cnccc1C(=O)N1CCN(C2CC2)c2ccc(F)cc21 | 2 | -0.33 |
| COc1ccc2c(c1)[C@H](C)N(C(=O)CCn1nnnc1C)CC2 | 11 | -1.5 |
| C[C@H](C(=O)N1CCN(C)CC1)C(C)(F)F | -4 | 0.66 |
| CN(C)CCNS(=O)(=O)c1c[nH]c2c(Br)cccc12 | 31 | -3.96 |
| O=C(c1ccsc1)N1CCC(F)(C(=O)N2CCCC2)CC1 | -10 | 1.35 |
| CCc1cccc(NCc2ccccc2-c2nnc(-c3ccccc3Cl)o2)c1 | -1 | 0.22 |
| Cc1nc(C)c(C(=O)N[C@@H](C)c2cc(Cl)cc(Cl)c2F)o1 | -4 | 0.75 |
| COc1ccc(-c2noc(-c3c(C)cc(C)n(CC(=O)NCc4ccc(F)cc4)c3=O)n2)cc1 | 6 | -0.85 |
| CC[C@H](C)n1nc(C)c2[nH]c(-c3cnn(-c4ccccc4)c3)nc21 | 17 | -2.1 |
| Cc1cccc(C)c1OCC(O)CNC(=O)NC1CCCC(N(C)C)C1 (stereo unspecified) | -8 | 1.07 |
| Cc1nc(C(=O)NCc2ccc(N(C)C)c(C)c2)c[nH]1 | 5 | -0.64 |
| CCc1nc(-c2c3n(c(=O)[nH]c2=O)CCCCC3)no1 | -10 | 1.09 |
| COc1cccc(C(=O)N(CC(=O)N2CCN(c3ccc(-c4ccc(Cl)cc4Cl)nn3)CC2)C(C)C)c1 | 0 | -0.03 |
| CC(C)(C)NC(=O)CN1C(=O)[C@]2(CC(=O)Nc3c2cnn3-c2ccccc2)c2ccccc21 | -8 | 0.82 |
| O=C1c2ccccc2[C@H](O)N1Cc1cccs1 | -8 | 1.08 |
| CC1(c2ccc(F)c(F)c2)CC1N1C(=O)NC(C2CC2)C1=O (stereo unspecified) | 2 | -0.32 |
| COc1ccc(NC(=O)Cc2nc(C)c(C(=O)NCc3ccccc3)s2)cc1Cl | -6 | 0.77 |
| CCNC(=O)NC(=O)[C@H](C)N(CCC(F)(F)F)C1CCC1 | 3 | -0.4 |
| CC(C)Nc1ncc(CN2CCC(c3[nH]ncc3-c3cccc(F)c3)CC2)cn1 | -2 | 0.33 |
| CC(=O)NC(C)(C)C(=O)NCC1(O)CCC(C(C)(C)C)CC1 (stereo unspecified) | -7 | 1.28 |
| COC(=O)[C@H](NC(=O)NC1CCCCC1)C(C)C | -7 | 1 |
| CCCN(CCC)c1ccc(NC(=O)CC)cc1C(=O)O | -7 | 1.2 |
